This is one part of the list.

B1: PhoQ; a variant is named by its letters at X, in order, P23837 (parent)
chain: MKKLLRLFFPLSLRVRFLLATAAVVLVLSLAYGMVALIGYSVSFDKTTFRLLRGESNLFYTLAKWENNKLHVELPENIDKQSPTMTLIYDENGQLLWAQRDVPWLMKMIQPDWLKSNGFHEIEADVNDTSLLLSGDHSIQQQLQEVREDDDDAEMTHSVAVNVYPATSRMPKLTIVVVDTIPVELKSSYMVWSWFIYVLSANLLLVIPLLWVAAWWSLRPIEALAKEVRELEEHNRELLNPATTRELTSLVRNLNRLLKSERERYDKYRTTLTDLTHSLKTPLXXLQXXLRSLRSEKMSVSDAEPVMLEQISRISQQIGYYLHRASMRGGTLLSRELHPVAPLLDNLTSALNKVYQRKGVNISLDISPEISFVGEQNDFVEVMGNVLDNACKYCLEFVEISARQTDEHLYIVVEDDGPGIPLSKREVIFDRGQRVDTLRPGQGVGLAVAREITEQYEGKIVAGESMLGGARMEVIFGRQHSAPKDE

This assay covers variants of B1. Nature of the assay: enrichment ratio after two sorts for PhoP signalling (ratio (wild type AVST 3.29)); higher = more functional. The following applies: with PhoP (E. coli).
Take KRQF: the enrichment ratio was not above 0.25.
As for QHWT, the figure is 3.63; as for YDAW, not above 0.25; as for EVNP, not above 0.25.
In the case of ECSP, the enrichment ratio was not above 0.25.
The figure for TDDI is not above 0.25; for AEVG it is 6.84; for DIDV it is not above 0.25.
The figure for SNGR is not above 0.25; for YKFW it is not above 0.25.
In the case of DLQG, the enrichment ratio was not above 0.25.
The figure for WDQH is not above 0.25; for HLVH it is not above 0.25.
As for DNMF, the figure is not above 0.25.
With GLMA, the enrichment ratio is not above 0.25.
The figure for RHMQ is not above 0.25.
As for PHGM, the enrichment ratio was not above 0.25.
As for GRRC, the figure is not above 0.25; as for DWHK, not above 0.25.
With YELE, the enrichment ratio is 13.8.
As for FDDA, the figure is not above 0.25; as for HRML, not above 0.25; as for SNNL, 13.1.
With FVRQ, the enrichment ratio is not above 0.25.
As for RMRR, the figure is not above 0.25; as for IAWP, not above 0.25; as for MCPD, not above 0.25.
Regarding NANY, the enrichment ratio was not above 0.25.
In the case of ICKF, the enrichment ratio is not above 0.25.
PSAE: the enrichment ratio was not above 0.25.
Consider RQTD, for which the enrichment ratio is not above 0.25.
Turning to TDFQ, the enrichment ratio is not above 0.25.
The figure for NADE is not above 0.25; for KTAT it is not above 0.25.
As for AIIP, the figure is not above 0.25; as for SNLD, 4.91.
For the variant YMDI, the enrichment ratio was not above 0.25.
The figure for ALWD is not above 0.25.
Consider IYET, for which the enrichment ratio was not above 0.25.
Take PYCY: the enrichment ratio is not above 0.25.
The figure for RTMP is not above 0.25; for HHMD it is not above 0.25; for EKKP it is not above 0.25.
Consider ACNK, for which the enrichment ratio was not above 0.25.
Regarding DYFQ, the enrichment ratio was not above 0.25.
As for MMDS, the enrichment ratio was not above 0.25.
The figure for SWKI is not above 0.25; for TLLD it is 0.36.
As for MEKQ, the figure is not above 0.25; as for HIYI, not above 0.25; as for HWWN, not above 0.25.
On to SGID, for which the enrichment ratio was not above 0.25.
In the case of KMWY, the enrichment ratio is not above 0.25.
For the variant MAYG, the enrichment ratio came to 1.2.
In the case of NPFL, the enrichment ratio was not above 0.25.
As for YNDS, the figure is not above 0.25; as for WPTE, not above 0.25; as for NQKM, not above 0.25.
The figure for IGDL is not above 0.25; for SIVM it is 2.21; for YKHK it is not above 0.25.
As for MVFS, the figure is not above 0.25; as for PDNS, not above 0.25; as for DPPL, not above 0.25.
As for SHLH, the enrichment ratio was found to be 4.88.
The figure for DREF is not above 0.25; for LFRS it is not above 0.25; for FCAT it is not above 0.25.
As for RNLR, the figure is not above 0.25; as for YRCH, not above 0.25; as for MAKP, not above 0.25.
For the variant NKPF, the enrichment ratio was not above 0.25.
For WDCV, the enrichment ratio is not above 0.25.
With GQTG, the enrichment ratio is not above 0.25.
As for HSGG, the figure is not above 0.25; as for TDWD, not above 0.25.
The figure for FMIY is not above 0.25; for LPDC it is not above 0.25; for KNMP it is not above 0.25.
The figure for PMCN is not above 0.25; for VVYA it is not above 0.25; for QINT it is not above 0.25.
Regarding FIPC, the enrichment ratio is not above 0.25.
Consider KGRQ, for which the enrichment ratio is not above 0.25.
The figure for SCPT is not above 0.25; for TQMV it is 7.29; for VEAI it is not above 0.25.
As to LFRQ, the enrichment ratio is not above 0.25.
The figure for CILD is not above 0.25.
The figure for HNPY is not above 0.25.
The figure for KLVL is not above 0.25; for QYGF it is not above 0.25; for MYTT it is not above 0.25.
As to HLKS, the enrichment ratio was not above 0.25.
In the case of WLTF, the enrichment ratio is not above 0.25.
The figure for LTVR is not above 0.25; for VFVG it is not above 0.25; for ANMN it is 4.6.
On to GRNG, for which the enrichment ratio is not above 0.25.
As for LQHV, the figure is not above 0.25; as for MGYC, 1.77; as for KYFN, not above 0.25.
The figure for HYNS is not above 0.25; for YWAN it is not above 0.25.
Regarding NSQQ, the enrichment ratio is not above 0.25.
As for EAYY, the enrichment ratio is not above 0.25.
In the case of GGNK, the enrichment ratio is not above 0.25.
As to TFVC, the enrichment ratio was not above 0.25.
The figure for MVSE is not above 0.25; for ACPE it is not above 0.25; for APFE it is not above 0.25.
Regarding FYNC, the enrichment ratio is not above 0.25.
As for LGEP, the figure is not above 0.25; as for MCEL, not above 0.25.
As for MPHY, the figure is not above 0.25; as for RYGM, not above 0.25.
The figure for MRLL is not above 0.25.
Consider RQNC, for which the enrichment ratio was not above 0.25.
Take MLEY: the enrichment ratio was not above 0.25.
Regarding NGSR, the enrichment ratio was not above 0.25.
As to LDNN, the enrichment ratio is not above 0.25.
The figure for IAMR is not above 0.25; for PQFA it is not above 0.25; for YFQS it is not above 0.25.
Consider QSGE, for which the enrichment ratio was found to be 2.88.
The figure for GRAQ is not above 0.25; for FQDK it is not above 0.25; for LRTC it is not above 0.25.
With LMKK, the enrichment ratio is not above 0.25.
As for FCSW, the figure is not above 0.25.
The figure for NHAQ is not above 0.25.
The figure for TIRH is not above 0.25.
Take VNWP: the enrichment ratio is not above 0.25.
As for IVAI, the enrichment ratio was not above 0.25.
For YDQG, the enrichment ratio was not above 0.25.
As for MAKN, the figure is not above 0.25; as for LHPT, not above 0.25; as for GQMV, 1.67.
On to FWIC, for which the enrichment ratio was not above 0.25.
Regarding WIWW, the enrichment ratio was not above 0.25.
On to EPVP, for which the enrichment ratio was not above 0.25.
On to YNVP, for which the enrichment ratio was not above 0.25.
The figure for FGVM is 5.75; for AWTM it is not above 0.25; for QYQR it is not above 0.25.
For PWHT, the enrichment ratio was not above 0.25.
The figure for SMGV is 2.38; for FYTS it is not above 0.25; for HARD it is not above 0.25.
As for TTIN, the enrichment ratio is not above 0.25.
The figure for DRWN is not above 0.25; for WPED it is not above 0.25.
As to AAWM, the enrichment ratio was not above 0.25.

The values are drawn from a collection of fitness landscapes (doi:10.1126/science.1257360).
